Measured values as given in PubChem BioAssay AID1346428 (National Center for Advancing Translational Sciences (NCATS), 2018).
Several values for one entry are separate records, joined by “and”; a condition that tells them apart may be missing. Identical values can stand only once. The whole screen tested about 48,000 compounds, of which about 1,200 (2.5%) were called active. About 2% were inconclusive and are not listed.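 Rule for the calls: active = activation of at least 60% and not above a set upper limit (about 1 call in 100 departs from these limits); inconclusive = activation of 40% to 60%, or above that upper limit; inactive = activation under 40%.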 Some of the results follow.

target: Probable G-protein coupled receptor 32 (Homo sapiens) (UniProt O75388); experiment: qHTS for Agonists of Human Resolvin D1 Receptor DRV1; conditions: CHO-K1 GPR32 beta-arrestin PathHunter luminescence, 90 min; at 76.9 µM; stronger effect = higher value; zero percent set by DMSO-only wells; note: 0% is about no effect
Method in brief: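 GPR32 activation in stably transfected CHO-K1 cells, detected as beta-arrestin recruitment by enzyme-fragment complementation. Compound exposure: 90 min, 37 °C.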

UniProt O75388, sequence (O75388 whole entry, looked up, the tested form may be a part): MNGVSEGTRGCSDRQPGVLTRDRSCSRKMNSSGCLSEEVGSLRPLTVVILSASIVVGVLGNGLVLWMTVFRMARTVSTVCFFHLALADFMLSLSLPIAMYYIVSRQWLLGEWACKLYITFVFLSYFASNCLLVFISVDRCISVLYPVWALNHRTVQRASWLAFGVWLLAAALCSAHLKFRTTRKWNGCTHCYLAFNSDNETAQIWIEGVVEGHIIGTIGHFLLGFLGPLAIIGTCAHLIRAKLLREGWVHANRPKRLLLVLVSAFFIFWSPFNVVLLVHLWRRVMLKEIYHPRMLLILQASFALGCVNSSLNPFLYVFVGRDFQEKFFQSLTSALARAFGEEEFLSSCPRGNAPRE

activation, inactive:
COc1cccc(NC(=O)c2oc3ccccc3c2NC(=O)C23CC4CC(CC(C4)C2)C3)c1 1.16%
COc1ccc(CN2COc3ccc4c(C)cc(=O)oc4c3C2)cc1 -3.06%
CC(=O)N[C@@H](Cc1c[nH]c2ccccc12)C(=O)OCc1cc(C(F)(F)F)cc(C(F)(F)F)c1 0.29%
COc1cccc2c1Oc1nc(-c3ccccc3)nc(SCC(=O)N3CCCCC3)c1C2 8.32%
COc1ccccc1NC(=O)Cn1c(=O)n(Cc2ccccc2)c(=O)c2ccccc21 -11.8%
COC(=O)c1ccc(NC(=O)Nc2nnc(N(C)C3CCCCC3)s2)cc1 7.41%
CCCOc1ccc(Nc2nc(SC)ncc2C(=O)OCC)cc1 -22%
O=C(CCn1c(=O)c2cccn2c2ccc(F)cc21)NCCc1ccccc1Cl -19.4%
Cc1coc2c(C)c3oc(=O)c(CC(=O)N4CCCCC4)c(C)c3cc12 -5.77%
COc1ccc(-c2nc3nc(C)cc(Nc4ccc(C(C)=O)cc4)n3n2)cc1 1.25%
Cc1cc(C)cc(-n2c(SCC(=O)Nc3nnc(C)s3)nc3c([nH]c4ccccc43)c2=O)c1 41.3%
COC(=O)c1ccc(NC(=O)Cc2coc3cc(C)ccc23)cc1 -9.54%
O=C(NCCCN1CCOCC1)c1ccc2c(c1)N(Cc1ccccc1)C(=O)c1ccccc1S2 -22.5%
CCn1c2ccccc2c2nnc(N3CCN(c4cccc(C)c4C)CC3)nc21 -17.9%
Cc1ccc(C)c(CN2CCC(CNC(=O)Cn3ncc4c([nH]c5ccccc54)c3=O)CC2)c1 6.52%
NC/C=C/C(=O)O 21% and -3.98%
CCOc1ccc(NC(=O)NC(C)c2c(-n3cccc3)sc(C)c2C)cc1 (stereo not given) -20%
CCOc1ccccc1CNC(=O)CN1C(=O)CCCc2ccccc21 -77.5%
CCOC(=O)CSc1nc2sc3c(c2c(=O)n1Cc1ccccc1)CC(C)CC3 (stereo not given) -20.3%
Cc1ccc(-n2ncc3c(NCCc4ccccc4)ncnc32)cc1C 7.6%
Cc1cccc(OCCCCn2nnc3sc4c(c3c2=O)CCC(C)C4)c1 (stereo not given) -17.6%
Cc1nc2nc(SCC(=O)NCc3ccccc3)nn2c(C)c1Cc1ccccc1Cl 6.19%
O=C(COc1ccccc1)Nc1ccc(C(=O)OCc2cc(=O)n3nc(C4CC4)sc3n2)cc1 3.2%
CCN(CC)CCNC(=O)C1CCN(S(=O)(=O)c2c(C)noc2/C=C/c2ccccc2F)CC1 -7.38%
Cc1ccc(OCCSc2nc3ccc(NC(=O)COc4ccc(F)cc4)cc3s2)cc1 10.6%
COc1ccc(-n2c(/C=C/c3cc(OC)c(OC)cc3OC)nc3cc4ccccc4cc3c2=O)cc1Cl -13.5%
CCN(CC)CCOC(=O)c1cc(Cl)c(N)cc1OC -10.7%
CCc1cccc(C)c1NC(=O)CN1CCCN(Cc2ccc(C)cc2)S1(=O)=O -5.57%
COc1ccc(-c2c(C)nn3c(C(F)(F)F)cc(-c4ccc(Br)cc4)nc23)cc1 -13.3%
O=C(Cc1cccs1)NC1CC(=O)N(c2ccccc2)C1 (stereo not given) -0.991%
O=C(CN1CCCN(Cc2ccccc2Cl)S1(=O)=O)Nc1ccc2c(c1)OCCO2 21.5%
Cc1cc(C)n2c(Nc3c(C)cccc3C)c(-c3ccsc3)nc2n1 15.9%
CCOC(=O)c1cc(-c2ccc(F)cc2)n(CC(=O)NC2CCCCC2)c1C -1.53%
COc1cc(/C=C/c2nc(C#N)c(NC(C)c3ccccc3)o2)cc(OC)c1OC (stereo not given) -25.5%
Cc1ccc(S(=O)(=O)N[C@@H](Cc2ccccc2)C(=O)CCl)cc1 -3.49%
O=C(O)CCc1ccc(-c2ccccc2)n1-c1cccc(Br)c1 -9.34%
CCOc1ccc(CNC(=O)Cn2c(=O)c3cccn3c3ccc(F)cc32)cc1OC -15.6%
O=C(CCCCn1c(=O)c2ccccc2n(CC(=O)Nc2cccc(F)c2)c1=O)NCc1ccccc1Cl -5.05%
CN(Cc1ccccc1)C(=O)c1cc2c(s1)-c1ccc(Cl)cc1SC2 -23.4%
COc1cc(NCc2ccc3nc(N)nc(N)c3c2C)cc(OC)c1OC 8.84%
Cc1ccc(NC(=O)CCSc2nc(-c3ccc4c(c3)OCO4)cc(C(F)(F)F)n2)cc1 -9.08%
CCCCN(C)CCNC(=O)Cn1ncc2c([nH]c3ccccc32)c1=O -7.97%
Cc1ccc(CNC(=O)Cn2c(=O)n(-c3ccccc3)c(=O)c3c2c2cc(C)ccc2n3C)cc1 -1.97%
CCc1ccc(Oc2nc3c(C)cccn3c(=O)c2/C=C(\C#N)c2nc3ccccc3s2)cc1 -6.08%
O=C(c1ccc(Cl)cc1)n1nc(-c2ccco2)nc1NCc1cccs1 0.776%
CCOC(=O)CCN(c1ccccc1)S(=O)(=O)c1ccc2[nH]c(=O)ccc2c1 -2.11%
CCOCCCNC(=O)CN1C(=O)c2c(c3ccccc3n2C)C1c1ccc(OC)cc1 (stereo not given) -11.1%
COc1cccc(N(Cc2nnc3n2CCCCC3)C(=O)Nc2cccc(Cl)c2)c1 15.5%
CCOC(=O)N1CCN(/[N+]([O-])=N/Oc2ccc([N+](=O)[O-])cc2[N+](=O)[O-])CC1 -4.23%
CCCN1CCCC[C@H]1C(=O)Nc1c(C)cccc1C -6.84%
COc1cc(C(=O)NCc2ccc(OCCN(C)C)cc2)cc(OC)c1OC -13.1%
CCOc1ccccc1NC(=O)N1CCCn2nc(C)cc21 -5.67%
O=C(NCC(c1cccs1)S(=O)(=O)c1cccs1)c1ccc(C(F)(F)F)cc1 (stereo not given) 42.8%
O=C(Cc1csc2nc(-c3ccccc3)cn12)NCc1ccc(F)cc1 -2.43%
CCOC(=O)c1c(S(=O)(=O)N2CCCC(C(=O)Nc3ncccc3C)C2)c(C)n(C)c1C (stereo not given) -17.3%
O=C(OCc1ccccc1Cl)c1ccc(-c2nnn(Cc3ccccc3Cl)n2)cc1 -3.82%
Cc1ccc(NC(=O)CCc2c(C)nn(-c3ccc(N4CCOCC4)nn3)c2C)cc1F 29.2%
COc1ccc(N(C(=O)COc2ccc(Br)cc2)S(=O)(=O)c2ccc(C)cc2)cc1 -5.31%
COc1ccc2c(c1)c1c(c(=O)n(-c3ccc(OC)c(OC)c3)c(=O)n1Cc1ccc(C)cc1)n2C 1.58%
CCCCNC(=O)CCCn1c(=O)c2ccccc2n(Cc2ccc(Cl)cc2)c1=O -12.3%
COc1ccc(C2CC(=O)c3cnc4c(-c5ccccc5)c(C)nn4c3C2)c(OC)c1 (stereo not given) 8%
CC(C)(C)OC(=O)N1CCC(c2c(C(=O)N3CCOCC3)cnn2-c2ccccc2Cl)CC1 -3.44%
Cc1cc2c(cc1C)-n1c(-c3ccccc3)c3c(=O)n(C)c(=O)n(C)c3c1C(c1ccco1)N2 (stereo not given) -5.25%
COc1ccccc1CNC(=O)CCCn1c(=O)c2cccn2c2ccccc21 -17.7%
COc1ccc(-c2nc(SCC(=O)Nc3cccc(C(C)=O)c3)n[nH]2)cc1 -2.1%
CCc1c(C)nc2nncn2c1Nc1cccc(C)c1 -7.21%
N#Cc1ccccc1S(=O)(=O)N1CCC(Oc2ccc(-n3cnnn3)cc2)CC1 9.49%
O=C(Cc1ccccc1)Nc1cc(-c2nc3cc(Cl)ccc3o2)ccc1Cl -2.02%
COc1ccc(Cc2nc3ccc(C(=O)NCc4cc(Br)ccc4OC)cc3o2)cc1 -23.4%
Fc1ccc(-c2noc3ncnc(N4CCCCC4)c23)cc1 4.96%
CNC(=O)C1CCN(C(=O)N2CC(C)Oc3ccc(C)cc32)CC1 (stereo not given) -7.04%
Cc1ccc(C)c(NC(=O)Cn2nnc(C(=O)NCc3ccco3)c2N)c1 -4.27%
CCOC(=O)c1c(NC(=O)CS(=O)(=O)c2ccc(Cl)cc2)sc2c1CCCC2 -7.85%
COc1ccc(CCC(=O)NCc2nc3cccnc3n2Cc2ccc(OC)cc2)cc1 -13%
COc1ccccc1N(C)C(=O)Cn1c(=O)oc2cc(S(=O)(=O)N3CCCC3)ccc21 -7.67%
O=C(O)CCNC(=O)c1ccc(N=Nc2ccc(O)c(C(=O)O)c2)cc1 -56.5%
Cc1ccccc1CNC(=O)C1CCCN(c2nnc(-n3c(C)ccc3C)s2)C1 (stereo not given) 24.4%
COc1ccc(-c2cc(C(=O)OCC(=O)c3cccc(OC)c3)c3cccc(Cl)c3n2)cc1 -1.77%
CCOC(=O)c1c(NC(=O)c2cc(=O)c3c(C)cc(C)cc3o2)sc2c1CCC2 -17%
Cc1nn(C)c2c1c(C(F)(F)F)cc(=O)n2C(C)C(=O)N1CCN(c2ccccc2)CC1 (stereo not given) -1.23%
Cn1c(=O)c2c(ncn2CC(=O)Nc2cc(Cl)cc(Cl)c2)n(C)c1=O 4.9%
CCOC(=O)c1cc(-c2ccccc2)n(CCCC(=O)Nc2ccc(C)c(C)c2)c1C -24.2%
Cn1cc(S(=O)(=O)N2CCCCCC2)cc1C(=O)N1CCN(c2ccc(Cl)cc2)CC1 -9.24%
Clc1ccc(CCNC(c2cccc(Cl)c2)c2nnc(-c3ccccc3)o2)cc1 (stereo not given) -26.9%
COc1ccc(Cl)cc1NC(=O)CSc1nc2ccccc2nc1N1CCCCC1 -6.07%
